Results as given in the CheMixHub viscosity set.
Values joined by “and” are separate entries in the source; they are usually repeats but may differ in a detail not shown here. Identical values can stand only once. ± gives the uncertainty stated by the source. Further values from the same series stand in other lists.

Test: xn = mol fraction of the nth substance listed

CC(C)O + O
viscosity
Settings | 308.15 K | 313.15 K | 318.15 K | 323.15 K
100 kPa, x1 = 0.1 | – | – | – | 1.066 ± 0.044 mPa·s
100 kPa, x1 = 0.25 | – | – | – | 1.297 ± 0.053 mPa·s
100 kPa, x1 = 0.4 | – | – | – | 1.286 ± 0.053 mPa·s
100 kPa, x1 = 0.5 | – | – | – | 1.216 ± 0.05 mPa·s
100 kPa, x1 = 0.8 | – | – | – | 1.036 ± 0.042 mPa·s
100 kPa, x1 = 0.9 | – | – | – | 1.009 ± 0.041 mPa·s
101 kPa, x1 = 0.0322 | – | – | 0.857 ± 0.17 mPa·s and 0.848 ± 0.17 mPa·s | –
101 kPa, x1 = 0.1 | – | 1.466 ± 0.013 mPa·s | 1.268 ± 0.011 mPa·s | 1.108 ± 0.01 mPa·s
101 kPa, x1 = 0.114 | 1.885 ± 0.38 mPa·s and 1.924 ± 0.39 mPa·s | – | 1.402 ± 0.28 mPa·s and 1.419 ± 0.29 mPa·s | –
101 kPa, x1 = 0.2 | 2.127 ± 0.018 mPa·s | 1.811 ± 0.016 mPa·s | 1.56 ± 0.014 mPa·s | 1.337 ± 0.009 mPa·s and 1.355 ± 0.012 mPa·s
101 kPa, x1 = 0.231 | 2.41 ± 0.49 mPa·s and 2.369 ± 0.48 mPa·s | – | 1.779 ± 0.36 mPa·s and 1.742 ± 0.35 mPa·s | –
101 kPa, x1 = 0.3 | 2.153 ± 0.014 mPa·s and 2.176 ± 0.018 mPa·s | 1.835 ± 0.012 mPa·s and 1.859 ± 0.016 mPa·s | 1.58 ± 0.011 mPa·s and 1.603 ± 0.014 mPa·s | 1.374 ± 0.009 mPa·s and 1.392 ± 0.012 mPa·s
101 kPa, x1 = 0.4 | 2.062 ± 0.014 mPa·s and 2.089 ± 0.017 mPa·s | 1.765 ± 0.012 mPa·s and 1.793 ± 0.015 mPa·s | 1.525 ± 0.01 mPa·s and 1.55 ± 0.013 mPa·s | 1.328 ± 0.009 mPa·s and 1.356 ± 0.011 mPa·s
101 kPa, x1 = 0.412 | 2.402 ± 0.49 mPa·s | – | 1.794 ± 0.36 mPa·s | –
101 kPa, x1 = 0.413 | 2.406 ± 0.49 mPa·s | – | 1.778 ± 0.36 mPa·s | –
101 kPa, x1 = 0.5 | 1.926 ± 0.013 mPa·s and 1.954 ± 0.016 mPa·s | 1.657 ± 0.011 mPa·s and 1.683 ± 0.014 mPa·s | 1.437 ± 0.01 mPa·s and 1.462 ± 0.012 mPa·s | 1.256 ± 0.009 mPa·s and 1.279 ± 0.011 mPa·s
101 kPa, x1 = 0.6 | 1.787 ± 0.012 mPa·s and 1.817 ± 0.015 mPa·s | 1.544 ± 0.011 mPa·s and 1.57 ± 0.013 mPa·s | 1.345 ± 0.009 mPa·s and 1.368 ± 0.011 mPa·s | 1.179 ± 0.008 mPa·s and 1.201 ± 0.0099 mPa·s
101 kPa, x1 = 0.7 | 1.696 ± 0.013 mPa·s | 1.476 ± 0.012 mPa·s | 1.29 ± 0.01 mPa·s | 1.137 ± 0.0093 mPa·s
101 kPa, x1 = 0.7001 | 1.669 ± 0.012 mPa·s | 1.449 ± 0.01 mPa·s | 1.265 ± 0.009 mPa·s | 1.113 ± 0.008 mPa·s
101 kPa, x1 = 0.73 | 2.065 ± 0.42 mPa·s and 2.042 ± 0.41 mPa·s and 2.057 ± 0.41 mPa·s | – | 1.58 ± 0.32 mPa·s and 1.558 ± 0.31 mPa·s and 1.576 ± 0.32 mPa·s | –
101 kPa, x1 = 0.7999 | 1.585 ± 0.011 mPa·s | 1.379 ± 0.01 mPa·s | 1.208 ± 0.009 mPa·s | 1.064 ± 0.008 mPa·s
101 kPa, x1 = 0.8 | 1.609 ± 0.013 mPa·s | 1.403 ± 0.011 mPa·s | 1.23 ± 0.0098 mPa·s | 1.085 ± 0.0088 mPa·s
101 kPa, x1 = 0.8999 | 1.538 ± 0.011 mPa·s | 1.341 ± 0.01 mPa·s | 1.176 ± 0.008 mPa·s | 1.035 ± 0.008 mPa·s
101 kPa, x1 = 0.9 | 1.558 ± 0.012 mPa·s | 1.362 ± 0.011 mPa·s | 1.194 ± 0.0095 mPa·s | 1.053 ± 0.0085 mPa·s
101.33 kPa, x1 = 0.0322 | – | 0.942 ± 0.0094 mPa·s | – | 0.764 ± 0.0076 mPa·s
101.33 kPa, x1 = 0.114 | – | 1.471 ± 0.015 mPa·s | – | 1.128 ± 0.011 mPa·s
101.33 kPa, x1 = 0.231 | – | 1.808 ± 0.018 mPa·s | – | 1.373 ± 0.014 mPa·s
